Results: ChEMBL document CHEMBL4888484, “Replenishing the malaria drug discovery pipeline: Screening and hit evaluation of the MMV Hit Generation Library 1 (HGL1) against asexual blood stage Plasmodium falciparum ,using a nano luciferase reporter read-out” (2022)
Several values for one entry are separate records, joined by “and”; a condition that tells them apart may be missing. Equal entries are not always repeated. The campaign covered roughly 150,000 compounds. About 540 (0.36%) showed an effect of 50% or more. This is one part of the list.

Tested on: Plasmodium falciparum
Experiment: Primary screen in NF54 nanoGlo assay, in single point, at 2uM, 72h; a lower Z score goes with more inhibition
Assay type: functional, Erythrocyte
Settings: timepoint 72 hour

SMILES	% Inhibition	Z score	% Inhibition (2 µM)
CC(=O)N(C1CCOCC1)[C@H]1CCCN(C(=O)Cc2cccnc2)C1	36%	-4.12	
O=C(CCN1CCCO1)N1CCO[C@@H](Cc2ccccc2Cl)C1	8%	-1.05	
CNCC1CCCN1C(=O)C1CCCC(C)C1 (configuration not stated)	-12%	2.19	
NC(=O)CN1CCC(O)(Cc2ccc(OC(F)(F)F)cc2)CC1	5%	-0.73	
Cc1noc2ncnc(N[C@H]3CCc4c(Cl)cccc43)c12	1%	-0.08	
O=C(c1cc2c(cn1)OCCC2)N1CCC(n2cn[nH]c2=O)CC1	35%	-3.99	
O=C(NCc1ccc(F)cc1)N1CCn2nc(C3CC3)cc2C1	-12%	1.33	
CCOc1ccc(-c2c[nH]c(-c3cc(C)n(-n4cnnc4)c3C)n2)cc1	30%	-3.82	
CC(C)c1csc(CNC(=O)CCc2nccn2C)n1	1%	-0.2	
Cc1ccc(C(N)=O)c(N2CCC(n3cc(-c4ccc(F)cc4)nn3)CC2)n1	-8%	1.01	
Cc1ccc(CNCc2ccc(C3CC3C)o2)o1 (configuration not stated)	-1%	0.17	
O=C(c1ccc(Br)o1)N1CC(n2nccn2)C1	0%	-0.04	
O=C(Nc1nn(Cc2ccccc2)c2cccc(N3CCOCC3)c12)[C@H]1CCOC1	-3%	0.66	
Nc1c(C(=O)Nc2ccc3c(c2)OCCO3)nnn1Cc1ccc(Br)cc1F	-2%	0.31	
Cc1noc(C)c1S(=O)(=O)NCC(=O)NCC(=O)O	-4%	0.62	
C[C@H]1CN(C(=O)c2ccc(F)cc2)C[C@@H]1c1nc(-c2ccccc2)no1	-18%	2.09	
CCOc1cccc(CNC(=O)c2nc3cccnc3n(CC)c2=O)c1	-5%	0.81	
O=C(O)CCc1cccc(NC(=O)C(=O)N2CC3(CCCCC3)C2)c1	-7%	1.32	
CCN(CC(=O)OCc1csc(NC(C)=O)n1)c1ccccc1	11%	-1.36	
CN(C(=O)c1ccc(N2CCOCC2)nc1)c1ccccc1	-3%	0.3	
CS(=O)(=O)N1CCC(c2cc(-c3ccc(F)cc3)n[nH]2)CC1	-11%	1.37	

SMILES	% Inhibition	Z score	% Inhibition (2 µM)
c1cc(-c2cnn(-c3nnn[nH]3)c2)ccc1-c1cn[nH]c1	-1%	0.24	
O=C(CC(C1CC1)C1CC1)NS(=O)(=O)c1cccc2c1N=S=N2	0%	0.08	
CCCCn1c(N)c(N(Cc2ccccc2OC)C(=O)c2ccoc2C)c(=O)[nH]c1=O	38%	-4.22	
O=C(O)c1ccc(Nc2c3ccccc3nc3ccccc23)cc1	-3%	0.3	
CC(C)=CCC[C@H](C)CN1CCCn2nc(CNC(=O)C3CCC3)cc2C1	1%	-0.1	
Cn1cc(-c2nsc(NC(=O)COC(F)F)n2)cn1	-7%	1.38	
Nc1c(NC(=O)NCc2ccc(F)cc2)c(-c2ccc(Cl)cc2)nn1-c1cc(F)ccc1F	7%	-0.83	
O=C(Nc1ccccc1)c1ccc(NC(=O)N2CCC3CCC(C2)[S+]3[O-])cc1 (configuration not stated)	-6%	1	
Cn1c(CCc2ccccc2NC(=O)C2CCCCC2)nc2ccccc21	-14%	1.65	
Cc1cc(NC(=O)c2ccc(-n3ccnc3)nn2)sn1	-6%	1.08	
Fc1cccc(Nc2nnnc3c2cnn3-c2ccccc2)c1	-7%	1.05	
Cc1cc(N2CCC[C@H](c3nnc[nH]3)C2)n2ncnc2n1	-18%	2.54	
CCc1csc(CCNS(=O)(=O)c2cn[nH]c2)n1	3%	-0.58	
CC[C@@H](C(=O)Nc1c2c(nn1C(C)(C)C)CS(=O)(=O)C2)c1ccccc1	-4%	0.71	
CN1CCN(CCn2cnc(-c3ccccc3)c2-c2c[nH]cn2)CC1	-5%	0.97	
COc1ccc(C2=NN(c3nc(C(=O)O)cs3)[C@@](O)(C(F)(F)F)C2)cc1	28%	-3.18	
Cc1ccc(OCC(=O)NC2CCCCCC2)c(-n2cnnc2)c1	1%	-0.14	
CC(C)Cn1c(C(=O)NC2CC2)nnc1N1CCC[C@H](OCC2CC2)C1	-9%	1.21	
COc1ccc(NC(=O)COc2ncnc3oc(C)c(C)c23)cc1OC	-5%	0.63	
O=C(c1ncc(F)cc1F)N1CCC2(CCC(=O)N(C3CC3)C2)CC1	-11%	2.14	
CCC1(C)CC2(CCCN(CCC(O)(c3ccccc3)c3ccccc3)C2)CCO1 (configuration not stated)			-5% and -1%

SMILES	% Inhibition	Z score	% Inhibition (2 µM)
CCCn1nnnc1CN(C)[C@@H](C)c1cccc(O)c1	-2%	0.4	
C[C@H]1CN(C(=O)Nc2ccc3oc(C4CC4)nc3c2)CCO1	-13%	1.35	
CN(C)CCCN1CCN(C(=O)c2cccc(-c3ccc(O)cc3)c2)CC1	-11%	1.23	
COc1ccc(Br)c(CN[C@H]2CCCOC2)c1	-8%	1.13	
CCOCCC1(C(=O)Nc2ncc(-c3cnccn3)s2)CCCC1	9%	-1.03	
Cc1cccc(-n2nc(C)nc2CN2CCCN(C)CC2)n1	-12%	1.53	
CCc1nc(CN2CCn3nc(C#N)cc3C2)no1	-2%	0.37	
O=C(C1CCCC1)N1CCCN(c2nc(Cc3ccccc3)nc3onc(-c4ccccc4)c23)CC1	-2%	0.27	
Cc1ccc(-n2ncc3c(C)n[nH]c(=O)c32)c(C)c1	-15%	3	
COC[C@H]1[C@@H](NC(=O)CCc2n[nH]c(C)c2C)[C@H]2CCO[C@H]21	-8%	0.83	
CN(C)S(=O)(=O)N1C[C@H]2CC[C@@H](C1)N(CCCOc1ccccc1)C2	-1%	0.12	
CS(=O)(=O)c1ccc(NC(=O)c2coc(NC(=O)c3cccs3)n2)cc1	-6%	0.99	
O=S(=O)(Nc1cccc2[nH]ncc12)c1cccc(F)c1F	-2%	0.31	
COC(=O)c1cc(C)nc2c1c(=O)n(CC(=O)NC1CCCC1)c(=O)n2-c1cccc(OC)c1	7%	-0.86	
CC(C)c1ocnc1C(=O)N1CC(C)C(C)C1 (configuration not stated)	-14%	2.09	
O=C(NC[C@H]1O[C@@H](CO)[C@@H](O)[C@H]1N1CCOCC1)Nc1ccc(OC(F)(F)F)cc1	-3%	0.63	
O=C(Nc1ccc2c(c1)OCO2)Nc1nnc(Cc2ccccc2)o1	-10%	1.14	
CC(=O)N1CCC2(CC1)C[C@@H](c1nnc(C)o1)N(CCc1ccccc1)C2	-7%	0.92	
O=C(NC1CCCCCC1)C1CCN(S(=O)(=O)c2cc(Cl)ccc2Cl)CC1	-16%	1.98	
CC(=O)Nc1ccc2c(c1)cc(C(=O)NCc1ccccc1)n2Cc1cccc(F)c1	2%	-0.28	
Cc1cccc(-c2noc(N3CCOCC3)c2CN(C(=O)c2ccc(Cl)cc2)C(C)C)c1	-8%	1.28	

SMILES	% Inhibition	Z score	% Inhibition (2 µM)
O=C(O)C1CCN(C(=O)[C@@H]2CCCN2C(=O)[C@H](Cc2ccccc2)n2c(O)nc3ccccc3c2=O)CC1	-2%	0.21	
Cc1ncc(NC(=O)N2CC(C)C2c2ccccc2)c(C2CC2)n1 (configuration not stated)	-8%	1.09	
COCCc1nc(-c2occc2C)n(CCO)n1	12%	-2.19	
Cc1nc(CCNS(C)(=O)=O)cs1	9%	-1.1	
CC(=O)N1CCN(C(=O)C2CC2c2cccc3ccccc23)CC1 (configuration not stated)	-3%	0.24	
CN(C1C2CCOC2C1(C)C)S(=O)(=O)c1cccs1 (configuration not stated)	-13%	1.79	
CCN(CC)C(=O)Cn1cc(C(=O)NCc2csc(C)n2)nn1	-11%	1.65	
CCCn1ccnc1[C@@H]1c2nc[nH]c2CCN1Cc1ccccn1	-5%	0.79	
Nc1nc(N2CCN(C(=O)[C@H]3C[C@@H]3c3ccccc3)CC2)cc(=O)[nH]1	-8%	1.36	
OCCn1nc(-c2ccco2)nc1C1(CO)CC1	-11%	1.6	
Cc1cc(-c2nc(COc3ccc(F)cc3)nn2C2CCN(C)CC2)no1	-11%	1.31	
CCCCNC(=O)[C@H]1CCCN(C(=O)c2nnc(C(=O)Nc3cccc(Cl)c3)s2)C1	-27%	2.41	
Cc1cc(NC(=O)C(=O)N2CCC[C@H](c3[nH]ncc3-c3ccccc3)C2)no1	-15%	1.43	
C[C@@H]1CN(c2nc(C(F)F)nc3ccc(F)cc23)C[C@H](C)N1	-4%	0.64	
Cc1occc1C(=O)N[C@@H](C)Cn1cccn1	4%	-0.43	
O=C(NS(=O)(=O)c1cccc2nsnc12)C1CCC2CC2C1 (configuration not stated)	-10%	1.49	
O=C(CC1CCCC1)N[C@H]1CC(=O)N(Cc2cccc(F)c2)C1	-5%	0.46	
c1ccc(-c2nnc(COc3ccc4oc5ccccc5c4c3)o2)cc1	-7%	0.93	
CCCCNC(=O)c1cc(-c2ccccc2)n2nc(-c3ccccc3)cc2n1	-1%	0.22	
Cc1cc(C)nc(-c2ccc(C(=O)NCCN3CCCC[C@@H]3CO)cc2)n1	-8%	1.16	
O=S(=O)(Nc1cc(S(=O)(=O)N2CCOCC2)ccc1N1CCCC1)c1ccc(Cl)c(C(F)(F)F)c1	-3%	0.29	
